Four molecules from patent publication US20210087286A1 (Amgen, published 2021) can be followed below.

For assay [1], the target named is T1, human GIPR (human, UniProt P48546 22-466).
T1 sequence: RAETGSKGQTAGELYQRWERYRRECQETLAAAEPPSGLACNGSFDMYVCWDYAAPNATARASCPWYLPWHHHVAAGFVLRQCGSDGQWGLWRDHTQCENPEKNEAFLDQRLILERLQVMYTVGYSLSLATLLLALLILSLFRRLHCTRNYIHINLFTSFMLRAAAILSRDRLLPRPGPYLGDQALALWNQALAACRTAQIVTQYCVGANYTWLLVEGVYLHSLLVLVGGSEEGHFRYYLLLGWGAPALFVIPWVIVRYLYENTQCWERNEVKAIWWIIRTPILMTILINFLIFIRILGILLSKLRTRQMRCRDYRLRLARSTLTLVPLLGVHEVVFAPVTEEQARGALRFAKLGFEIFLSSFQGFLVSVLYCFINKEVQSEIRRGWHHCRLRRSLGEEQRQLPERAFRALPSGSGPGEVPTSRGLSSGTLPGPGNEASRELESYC
Briefly: cell-based or functional assay.

The target of assay [2] is T2, huGIPR ECD (human, UniProt P48546 21-129, limits assumed).
T2 construct: Soluble analyte of the Biacore assay; also called human GIPR extracellular domain
T2 sequence: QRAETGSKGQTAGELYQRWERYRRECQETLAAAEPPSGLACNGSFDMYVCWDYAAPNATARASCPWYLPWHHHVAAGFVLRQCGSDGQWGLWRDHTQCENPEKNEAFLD
Briefly: SPR (Biacore T200), mAb captured via goat anti-huFc, 200 nM huGIPR ECD analyte. As to the method: Immobilization of Goat-anti-huFc antibody to a S-CM5 sensor chip surface was performed according to manufacturer's instructions. The Biacore instrument running buffer is 0.005% P20/PBS 1×, pH7.4, no calcium chloride, no magnesium chloride. Briefly, carboxyl groups on the sensor chip surfaces were activated by injecting 60 μL of a mixture containing 0.2 M N-ethyl-N′-(dimethylaminopropyl) carbodiimide (EDC) and 0.05 M N-hydroxysuccinimide (NHS). Goat-anti-huFc antibody was diluted in 10 mM sodium acetate, pH 4.0 at 20 μg/ml and injected over the activated chip surface at 30 uL/min for 6 minutes. Excess reactive groups on the surfaces were deactivated by injecting 60 μL of 1 M ethanolamine. Final immobilized level was ˜8000 resonance units (RU).
Binding assays were carried out on the immobilized goat anti-huFc antibody surface by Biacore T200. The experiment was performed at 25° C. The instrument running buffer was 0.005% P20/PBS. The goat anti-huFc capture antibody was covalently attached to the sensor chip surface via standard amine coupling to flow cells channel 1-4. The anti-huGIPR antibodies were diluted in sample buffer (0.1 mg/ml BSA, 0.005% P20, PBS) to ˜10 nM then captured to flow cells channel 2, 3, 4. Flow cell channel 1 was as a blank reference surface without injection of anti-huGIPR antibody. The captured antibody response range was ˜250 RU. […]

Assay [3] has as its target T1, human GIPR. Briefly: cell-based or functional assay. The source holds these as a separate data set.
The target of assay [4] is T3, murine GIPR (murine, UniProt Q0P543 19-460, limits assumed).
T3 sequence: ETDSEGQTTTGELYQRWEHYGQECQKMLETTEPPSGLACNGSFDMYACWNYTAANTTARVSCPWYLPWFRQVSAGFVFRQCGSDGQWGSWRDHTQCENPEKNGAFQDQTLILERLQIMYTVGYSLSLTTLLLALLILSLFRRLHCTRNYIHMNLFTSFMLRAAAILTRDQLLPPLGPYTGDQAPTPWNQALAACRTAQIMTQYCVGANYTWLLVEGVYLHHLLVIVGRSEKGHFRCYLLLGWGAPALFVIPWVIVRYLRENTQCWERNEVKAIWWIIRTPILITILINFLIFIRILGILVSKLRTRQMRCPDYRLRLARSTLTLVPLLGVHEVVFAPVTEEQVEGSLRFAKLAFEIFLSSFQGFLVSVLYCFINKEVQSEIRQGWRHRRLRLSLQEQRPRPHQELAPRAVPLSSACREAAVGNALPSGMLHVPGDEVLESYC
As to the kind of experiment: cell-based or functional assay.

B1: 2G10.320 (antibody, human IgG1, kappa, N297G)
light: EIVMTQSPATLSVSPGERATLSCRASQSVSEHLAWYQQKPGQAPRLLIYEAATRATGIPARFSGSGSGTEFTLTISSLQSEDFAVYYCQQYQNWPLTFGGGTKVEIKRTVAAPSVFIFPPSDEQLKSGTASVVCLLNNFYPREAKVQWKVDNALQSGNSQESVTEQDSKDSTYSLSSTLTLSKADYEKHKVYACEVTHQGLSSPVTKSFNRGEC
heavy: QVQLVESGGGVVQPGRSLRLSCAASGFTFSNYGMHWVRQAPGEGLEWVAAIWFDASDKYYAD[sequence of about 20 residues not given]MNSLRAEDTAVYYCARDLAIFGVIPDYWGQGTLVTVSSASTKGPSVFPLAPSSKSTSGGTAALGCLVKDYFPEPVTVSWNSGALTSGVHTFPAVLQSSGLYSLSSVVTVPSSSLGTQTYICNVNHKPSNTKVDKKV[sequence of human IgG1 Fc with R292C N297G V302C (EU numbers) not given]
Take B1: in assay [1], the “cAMP IC50” value is 14 nM. For the same molecule, in assay [2], the koff is below 5e-05 s⁻¹.

B2: iPS:529381 (antibody, human IgG1, kappa, N297G)
light: EIVMTQSPATLSVSPGERATLSCRASQSVSEHLAWYQQKPGQAPRLLIYEAATRATGIPARFSGSGSGTEFTLTISSLQSEDFAVYYCQQYQNWPLTFGGGTKVEIKRTVAAPSVFIFPPSDEQLKSGTASVVCLLNNFYPREAKVQWKVDNALQSGNSQESVTEQDSKDSTYSLSSTLTLSKADYEKHKVYACEVTHQGLSSPVTKSFNRGEC
heavy: QVQLVESGGGVVQPGRSLRLSCAASGFTFSNYGMHWVRQAPGEGLEWVAAIWFDASDKYYAD[sequence of about 20 residues not given]MNSLRAEDTAVYYCARDLAIFGVIPDYWGQGTLVTVSSASTKGPSVFPLAPSSKSTSGGTAALGCLVKDYFPEPVTVSWNSGALTSGVHTFPAVLQSSGLYSLSSVVTVPSSSLGTQTYICNVNHKPSNTKVDKKVEPKSCDKTHTCPPCPAPELLGGPSVFLFPPKPKDTLYITREPEVTCVVVDVSHEDPEVKFNWYVDGVEVHNAKTKPCEEQYGSTYRCVSVLTVLHQDWLNGKEYKCKVSNKALPAPIEKTISKAKGQPREPQVYTLPPSREEMTKNQVSLTCLVKGFYPSDIAVEWESNGQPENNYKTTPPVLDSDGSFFLYSKLTVDKSRWQQGNVFSCSVMHEALHNHYTQKSLSLSPGK
On to B2, for which the “human cAMP IC50” value in assay [3] was determined as 33.2 nM. The “murine cAMP” value in assay [4] was found to be 9.3 nM.

B3: iPS:529382 (antibody, human IgG1, kappa, N297G)
light: EIVMTQSPATLSVSPGERATLSCRASQSVSSNLAWYQQKPGQAPRLLIYGAATRATGIPARFSGSGSGTEFTLTISSLQSEDFAVYYCQQYNNWPLTFGGGTKVEIKRTVAAPSVFIFPPSDEQLKSGTASVVCLLNNFYPREAKVQWKVDNALQSGNSQESVTEQDSKDSTYSLSSTLTLSKADYEKHKVYACEVTHQGLSSPVTKSFNRGEC
heavy: QVQLVESGGGVVQPGRSLRLSCAASGFTFSNYGMHWVRQAPGEGLEWVAAIWFDASDKYYAD[sequence of about 20 residues not given]MNSLRAEDTAVYYCARDIAIFGVVPDYWGQGTLVTVSSASTKGPSVFPLAPSSKSTSGGTAALGCLVKDYFPEPVTVSWNSGALTSGVHTFPAVLQSSGLYSLSSVVTVPSSSLGTQTYICNVNHKPSNTKVDKKVEPKSCDKTHTCPPCPAPELLGGPSVFLFPPKPKDTLYITREPEVTCVVVDVSHEDPEVKFNWYVDGVEVHNAKTKPCEEQYGSTYRCVSVLTVLHQDWLNGKEYKCKVSNKALPAPIEKTISKAKGQPREPQVYTLPPSREEMTKNQVSLTCLVKGFYPSDIAVEWESNGQPENNYKTTPPVLDSDGSFFLYSKLTVDKSRWQQGNVFSCSVMHEALHNHYTQKSLSLSPGK
For the molecule B3, the “human cAMP IC50” value in assay [3] was 26.2 nM. In addition, in assay [4], the “murine cAMP” value stood at 49.7 nM.

B4: 2G10.346 (antibody, human IgG1, kappa, N297G)
light: EIVMTQSPATLSVSPGERATLSCRASQSVSSNLAWYQQKPGQAPRLLIYGAATRATGIPARFSGSGSGTEFTLTISSLQSEDFAVYYCQQYNNWPLTFGGGTKVEIKRTVAAPSVFIFPPSDEQLKSGTASVVCLLNNFYPREAKVQWKVDNALQSGNSQESVTEQDSKDSTYSLSSTLTLSKADYEKHKVYACEVTHQGLSSPVTKSFNRGEC
heavy: QVQLVESGGGVVQPGRSLRLSCAASGFTFSNYGMHWVRQAPGEGLEWVAAIWFDASDKYYAD[sequence of about 20 residues not given]MNSLRAEDTAVYYCARDIAIFGVVPDYWGQGTLVTVSSASTKGPSVFPLAPSSKSTSGGTAALGCLVKDYFPEPVTVSWNSGALTSGVHTFPAVLQSSGLYSLSSVVTVPSSSLGTQTYICNVNHKPSNTKVDKKV[sequence of human IgG1 Fc with R292C N297G V302C (EU numbers) not given]
For B4, the “cAMP IC50” value in assay [1] came to 22.2 nM. Further, the koff in assay [2] turned out to be 0.0001 s⁻¹.

In general, koff refers to the rate constant with which the complex falls apart. Higher therefore signals fast dissociation.
